# In PubChem BioAssay AID1466 (National Center for Advancing Translational Sciences (NCATS), 2008):
# The whole screen tested about 200,000 compounds, of which about 10 (0.005%) were called active. The inconclusive results got no clear call from the source; some entries with a clear call stand among them for comparison. Calls come from the whole dose curve; as a rule, active = well fitted inhibition curve with a large enough effect; inconclusive = small, poorly fitted or top-dose-only effect, or effect the other way, or another doubt; inactive = no such curve, though single readings can be large or run the other way. No potency is given beside an inconclusive call; the fits are too rough.
# Target: Lysosomal alpha-glucosidase (Homo sapiens) (UniProt P10253)
# Assay: qHTS Assay for Inhibitors of Human alpha-Glucosidase as a Potential Chaperone Treatment of Pompe Disease;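 for activity change, negative = inhibition: plate controls were uninhibited enzyme wells for no effect and no-enzyme background for full effect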
# Conditions: purified human GAA, 4-MU-alpha-glucoside fluorescence; activity change, negative = inhibition: at 76.9 µM (top of the series) unless noted
# Method in brief: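 Compounds are titrated up to 77 uM against 4 nM human enzyme. Substrate 4-methylumbelliferyl-alpha-D-pyranoside (400 uM) reacts 20 min at room temperature in pH 5.0 buffer; liberated 4-methylumbelliferone is read at 440 nm.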
# Potency is the fitted concentration of half-maximal effect; tags give direction and shape of the fitted curve.
Structure (SMILES),"activity change, negative = inhibition",Potency
Cc1ccc(CC(=O)Nc2cc([N+](=O)[O-])ccc2F)cc1,inconclusive: 17.2% [activator],
COc1ccc(-c2cc(-c3cc(OC)ccc3O)[nH]n2)cc1,,inactive
Brc1ccc(C2C3=C(Nc4ncnn42)c2ccccc2OC3c2ccncc2)cc1 (configuration not stated),,inactive
Cc1ccc(OCCCN2C(=O)C(=O)c3cc(C)ccc32)cc1,,inactive
Cc1cccc(NC(=O)c2ccoc2C)n1,,inactive
N#Cc1c(C(F)(F)F)cc(-c2ccco2)nc1SCc1ccccn1,,"inconclusive [activator, partial curve]"
COc1cc(CN2CCNC(=O)C2CC(=O)N2CCCO2)cc(OC)c1 (configuration not stated),,inactive
CN(C)CCCN(Cc1cc2cc3c(cc2[nH]c1=O)OCO3)C(=S)NCc1ccco1,inconclusive: 16.9% [activator],
CCn1c(SCc2nnc(-c3ccccc3)o2)nc2c1c(=O)n(C)c(=O)n2C,,"inconclusive [inhibitor, single point]"
COC(=O)C1=CN(C)C=C(C(=O)OC)C1c1ccc(Cl)cc1Cl,,"inconclusive [activator, partial curve]"
O=C(Cc1ccccc1)N1CCN(S(=O)(=O)c2ccc([N+](=O)[O-])cc2)CC1,,inactive
CC(=O)N1CCn2c3c(c4cc(C)ccc42)CCCC31 (configuration not stated),,inactive
C/C(Cn1cnc([N+](=O)[O-])n1)=N\NC(=O)c1ccccc1O,inconclusive: 18.9% [activator],
Cc1ccc2nc(-c3ccc(SCC(=O)Nc4ccc5c(c4)OCCO5)nc3)[nH]c2c1,,"inconclusive [activator, single point]"
c1ccc(C2Nc3ccccc3-c3nc4ccccc4n32)cc1 (configuration not stated),,"inconclusive [activator, single point]"
Cc1ccc2nc3nc(NCC4CCCO4)c(C(=O)NC4CCCCC4)cc3c(=O)n2c1 (configuration not stated),inconclusive: 32.2% [activator],
Nc1nc2nccc(-c3ccc(Cl)cc3)n2n1,,"inconclusive [activator, partial curve]"
CC(=O)CCc1oc2ccc([N+](=O)[O-])cc2c1-c1ccc(C)o1,inconclusive: 11.2% [activator],
CC(Oc1ccc(-c2ccccc2)c(F)c1)c1ccn(S(=O)(=O)c2ccc(Cl)cc2)n1 (configuration not stated),inconclusive: -18.5% [inhibitor],
Cc1cc(/C=N/NC(N)=S)c(C)n1-c1ccc(Cl)cc1,,"inconclusive [inhibitor, partial curve]"
Cc1cc(C)cc(N(CC(=O)O)S(=O)(=O)c2c(C)noc2C)c1,,"inconclusive [inhibitor, single point]"
C=CCN(CC=C)S(=O)(=O)c1ccc(C(=O)Nc2sc3c(c2C(N)=O)CCCCC3)cc1,,"inconclusive [inhibitor, single point]"
O=C(NCc1cccnc1)C1CCN(c2ccc(S(=O)(=O)N3CCOCC3)cc2Cl)CC1,inconclusive: 15.4% [activator],

Structure (SMILES),"activity change, negative = inhibition",Potency
CCN(C(=O)c1ccc(Br)cc1)c1ccccc1,inconclusive: 9.77% [activator],
O=c1c(N2CCOCC2)nsnc1N1CCOCC1,,inactive
Cc1ccc(-n2nnnc2SCC(=O)Nc2cccc(NC(=O)c3ccco3)c2)cc1C,inconclusive: -15.7% [inhibitor],
CC(Sc1nc2ccccc2s1)C(=O)NCc1ccc2c(c1)OCO2 (configuration not stated),inconclusive: -16.4% [inhibitor],
C=CCOc1cccc(C(=O)N2CCCC(CCC(=O)NCc3ccccc3F)C2)c1 (configuration not stated),,"inconclusive [inhibitor, single point]"
CC(=O)N(C(C)=O)n1c(/C=C/c2cccc([N+](=O)[O-])c2)nc2ccccc2c1=O,inconclusive: 17.7% [activator],
N/C(=N\OC(=O)COc1ccc(Br)cc1)c1ccncc1,,"inconclusive [inhibitor, full curve, poor fit]"
C/C(CCN1CCc2nc(-c3ccccc3)c(-c3ccccc3)cc2C1)=N\O[C@H](C)c1cn([C@H](CO)Cc2ccccc2)nn1,,"inconclusive [inhibitor, partial curve]"
COc1ccc(CCNC(=O)C2CCN(S(=O)(=O)c3ccc(Cl)cc3)CC2)cc1OC,,"inconclusive [inhibitor, full curve]"
Cc1cc2nc(CSc3ccccc3)cc(=O)n2[nH]1,,inactive
O=C1c2ccccc2NC(c2ccncc2)N1c1ccccn1 (configuration not stated),inconclusive: 15.7% [activator],
CN1CCc2c(sc3c2C(=O)NC(c2ccco2)N3)C1 (configuration not stated),,"inconclusive [activator, partial curve]"
CCOc1ncccc1C(=O)NCC1COc2ccccc2O1 (configuration not stated),,"inconclusive [inhibitor, full curve, poor fit]"
CN(C)/C=N/c1nc2nccc(-c3cccs3)n2n1,,"inconclusive [activator, single point]"
CCn1c(SCC(=O)OC)nnc1-c1ccccc1,,"inconclusive [inhibitor, full curve, poor fit]"
COc1c(C(=O)NNC(=O)c2ccccc2)csc1Br,,"inconclusive [inhibitor, single point]"
COc1ccccc1NC(=O)/C=C/C(N)=O,,"inconclusive [inhibitor, single point]"
CCCC(=O)NC(c1ccccc1Cl)c1c(O)ccc2ccccc12 (configuration not stated),,"inconclusive [activator, single point]"
CC(=O)Nc1ccc(C(=O)CSc2nnnn2C2CCCC2)cc1,,"inconclusive [inhibitor, partial curve]"
COc1ccc(N2CCN(C(=O)c3cccc(Br)c3)CC2)c([N+](=O)[O-])c1,,"inconclusive [inhibitor, single point]"
Cc1ccc(NC(NC(=O)c2cccs2)C(Cl)(Cl)Cl)cc1 (configuration not stated),,"inconclusive [inhibitor, full curve, poor fit]"
c1ccc2c(NCC3CCCO3)nc(N3CCOCC3)nc2c1 (configuration not stated),,"inconclusive [activator, partial curve]"
CCS(=O)(=O)N1CCN(c2c(Cl)cccc2[N+](=O)[O-])CC1,,"inconclusive [activator, partial curve, poor fit]"

Structure (SMILES),"activity change, negative = inhibition",Potency
O=C(Nc1ccc(Cl)cc1)Nc1nnc(SCc2ccccc2)s1,,"inconclusive [inhibitor, single point]"
CCCCCCNC(=O)c1cc(-c2ccco2)nc2ccccc12,,"inconclusive [activator, partial curve]"
COc1ccc(OC)c(/C=N/NC(=O)CCCC(=O)Nc2cccc(Br)c2)c1,,"inconclusive [activator, partial curve]"
Cc1cccn2c(=O)c3cc(C(=O)NCCN4CCOCC4)n(Cc4ccccc4)c3nc12,,"inconclusive [activator, partial curve]"
CCOC(=O)C1(CC2CCCCO2)CCN(Cc2c(C)cc(C)cc2-n2cccn2)CC1 (configuration not stated),,"inconclusive [inhibitor, partial curve, poor fit]"
COC(=O)C1=CN(C(C)C)C=C(C(=O)OC)C1c1cc2c(cc1Br)OCO2,,"inconclusive [activator, partial curve]"
O=C(O)CC(C(=O)O)N1C(=O)/C(=C/c2ccc(-c3nc4ccccc4s3)o2)SC1=S (configuration not stated),,"inconclusive [inhibitor, full curve]"
Cc1cccc(NC(=O)CCN2C(=O)C3C4C=CC(C4)C3C2=O)n1 (configuration not stated),,"inconclusive [inhibitor, partial curve]"
Clc1cccc(CN2CCC(Cc3ccccc3)CC2)c1,,"inconclusive [inhibitor, partial curve]"
COc1ccc(N2C(=O)CC(C3CCCO3)C2=O)cc1 (configuration not stated),,"inconclusive [inhibitor, single point]"
CSc1nnc(-c2cc(Br)ccc2N=Cc2c(C)[nH]n(-c3ccccc3)c2=O)c(=O)[nH]1,inconclusive: 16.2% [activator],
Cc1ccccc1-c1nc(-c2ccccn2)no1,,"inconclusive [inhibitor, single point]"
CCOC(=O)c1cnc2ccc(OCC)cc2c1NCc1ccccc1OC,,"inconclusive [activator, partial curve]"
CCOC(=O)CC(=O)CSc1nc2ccc(C)cc2cc1C#N,inconclusive: -18.8% [inhibitor],
COc1cccc(NC(=O)Cn2nnc(-c3ccccc3N)n2)c1,,"inconclusive [inhibitor, single point]"
Cc1ccccc1N1CCN(C(=O)c2ccc(Oc3ccc(C(F)(F)F)cn3)cc2)CC1,,"inconclusive [inhibitor, single point]"
Cc1ccc(NCc2ccc(O)c3ncccc23)cc1C,inconclusive: 18% [activator],
O=C(Nc1ccc(N2CCOCC2)cc1N1CCOCC1)c1ccco1,inconclusive: -19.7% [inhibitor],
CCCCC(NS(=O)(=O)c1ccc(C)cc1)C(=O)Oc1ccc2c3c(c(=O)oc2c1)CCC3 (configuration not stated),,"inconclusive [activator, partial curve]"
COc1ccc2c(c1)sc(N)[n+]2Cc1cc(C)cc2cccnc12,,"inconclusive [inhibitor, single point]"
COc1ccc(Cl)cc1-c1n[nH]c(=S)n1C1CCCCC1,,"inconclusive [inhibitor, single point]"
